A compilation of properties of binary mixtures (doi:10.1590/0104-6632.20180352s20160280)
Some of these densities may be calculated back from excess volumes.

Assay: xn = mol fraction of the nth substance listed
Conditions: 100 kPa

O=C[O-].OCC[NH2+]CCO + O
mass density [kg/m3]
Conditions	x1 = 0.0292	x1 = 0.075	x1 = 0.1516	x1 = 0.2184	x1 = 0.3185	x1 = 0.5155	x1 = 0.5932	x1 = 0.7378	x1 = 0.7987	x1 = 1
293.15 K	1043	–	1133.4	1156	–	1194.6	1196.1	1204	1205.3	–
303.15 K	–	1085.5	1128.5	1150.8	1169.9	1189.4	1190.7	1198.5	–	1205.7
313.15 K	1035.2	–	1123.4	1145.4	1164.6	1183.7	1185.2	1193.2	1194.4	1200.2
323.15 K	1030.6	1075.4	1118.2	1139.9	1159.4	1178.4	1179.9	1187.7	1189	1194.7
333.15 K	1025.6	1070.2	1112.6	1134.4	–	1172.9	1174.1	1182.3	–	1189.3
343.15 K	1020.1	1064.7	1106.9	1128.8	1147.7	1167.2	–	1176.7	1178.2	–
